According to PubChem BioAssay AID588342 (National Center for Advancing Translational Sciences (NCATS), 2011):
Screen size: about 360,000 compounds; about 25,000 (6.9%) were called active. The inconclusive results got no clear call from the source; some entries with a clear call stand among them for comparison. Calls follow the shape of the dose curve; as a rule, active = well fitted inhibition curve with a large enough effect; inconclusive = small, poorly fitted or top-dose-only effect; inactive = flat fitted curve, though single readings scatter. Potencies of inconclusive entries are doubtful fits and often do not repeat.

Biological target: Luciferin 4-monooxygenase (Photinus pyralis) (UniProt P08659)
Test: qHTS profiling assay for firefly luciferase inhibitor/activator using purifed enzyme and Km concentrations of substrates (counterscreen for miR-21 project); also: nearly all actives have a fitted effect of over 55% in size;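 as to activity change, negative = inhibition: plate controls were vehicle for no effect and reference inhibitor for full effect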
Conditions: purified FLuc, luminescence inhibition; series mostly up to 57.5 µM; activity change, negative = inhibition: at the top concentration
Procedure, shortened: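 Purified P. pyralis luciferase (10nM final) with 10uM D-luciferin and 10uM ATP (Km levels) in 50mM Tris acetate pH 7.5, 10mM Mg acetate, 0.01% Tween-20, 0.05% BSA; qHTS 6-point titration, ~60 µM downward; luminescence read.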
Potency is read from the fitted curve at half-maximal effect; tags tell the direction and shape of the fitted curve.

Chain of UniProt P08659 (P08659 whole entry, looked up): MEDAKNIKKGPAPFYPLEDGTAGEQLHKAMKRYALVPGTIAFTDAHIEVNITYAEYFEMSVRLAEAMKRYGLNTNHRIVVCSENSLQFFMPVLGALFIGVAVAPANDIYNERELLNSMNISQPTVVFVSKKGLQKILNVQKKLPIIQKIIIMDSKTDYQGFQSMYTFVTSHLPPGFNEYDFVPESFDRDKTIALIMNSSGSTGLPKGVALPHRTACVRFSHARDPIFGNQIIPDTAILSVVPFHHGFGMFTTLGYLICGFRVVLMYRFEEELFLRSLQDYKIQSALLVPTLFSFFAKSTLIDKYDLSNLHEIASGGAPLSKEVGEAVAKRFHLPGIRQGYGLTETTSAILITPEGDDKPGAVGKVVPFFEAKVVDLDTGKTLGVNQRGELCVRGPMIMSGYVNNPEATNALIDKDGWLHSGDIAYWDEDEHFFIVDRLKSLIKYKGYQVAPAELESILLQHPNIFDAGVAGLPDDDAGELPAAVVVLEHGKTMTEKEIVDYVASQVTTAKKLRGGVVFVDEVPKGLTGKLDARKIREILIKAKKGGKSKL

SMILES	activity change, negative = inhibition	Potency
CCOc1cc(/C=C2\NC(=S)N(c3c(C)n(C)n(-c4ccccc4)c3=O)C2=O)ccc1O	inactive: -0.882%	
Cc1c(C(=O)N(C)CCOc2ccccc2)oc2c(Cl)cccc12		inconclusive: 10.7 µM [inhibitor, partial curve]
COc1cccc(NC(=O)c2ccc3c(c2)N(C)CCS3)c1		active: 2.69 µM
C/C=C/c1ccc(OCC(=O)OCC)c(OC)c1		inconclusive: 21.3 µM [inhibitor, partial curve, poor fit]
COc1ccccc1C(=O)NCCSc1c(C)[nH]c2ccccc12	inactive: -16.9%	
COc1ccc(OC)c(NC(=O)COC(=O)Cc2ccc(-c3ccccc3)cc2)c1		inconclusive: 21.3 µM [inhibitor, partial curve]
CC(C)(C)c1ccc(OCC(=O)N/N=C/c2cc(Br)ccc2OC(=O)c2ccco2)cc1		inconclusive: 6.75 µM [inhibitor, partial curve]
CCc1nn2c(=O)cc(COC(=O)c3ccccc3NC(=O)COc3ccc(F)cc3)nc2s1		inconclusive: 7.57 µM [inhibitor, partial curve, poor fit]
O=C(Nc1ccccc1C(F)(F)F)c1cc(-c2ccc(O)cc2)on1		active: 26.9 µM
O=C(OCCc1cc2ccccc2c(=O)o1)c1cccs1		active: 4.26 µM
CSc1nc(C(=O)N2CCCC(Nc3ccc(C)c(C)c3)C2)cs1 (centres undefined)	inactive: -3.54%	
CCOC(=O)c1[nH]c(C)c(CCC(=O)Nc2cccc(C(F)(F)F)c2)c1C	inactive: 3.93%	
COc1ccc(S(=O)(=O)Nc2noc3ccccc23)cc1	inactive: -1.87%	
Cc1nn(-c2ccccc2)c(OC(=O)c2ccccc2Cl)c1S(=O)(=O)c1ccccc1		inconclusive: 10.7 µM [inhibitor, partial curve]
CCCc1cc(=O)oc2c3c(cc(OCC(=O)N[C@@H](CSC)C(=O)O)c12)OC(C)(C)CC3		inconclusive: 19 µM [inhibitor, partial curve, poor fit]
O=C(CSc1nccn1Cc1ccccc1)Nc1nc2ccccc2s1		active: 16.9 µM
Cc1cc(C)n2nc(SCC(=O)c3cc(C)n(CC4CCCO4)c3C)nc2n1 (centres undefined)		inconclusive: 30.1 µM [inhibitor, partial curve, poor fit]
Cc1cccc(CNC(=O)c2ccc(NC(=O)C3=CSCCO3)cc2)c1		inconclusive: 37.9 µM [inhibitor, partial curve, poor fit]
CCCCOC(=O)Nc1nnc(/C=C/c2ccc(OC)cc2)s1		inconclusive: 9.53 µM [inhibitor, partial curve, poor fit]
Cc1ccc(C(=O)Nn2c(O)c(C=C3N=c4ccccc4=N3)sc2=S)cc1		inconclusive: 12 µM [inhibitor, partial curve, poor fit]
Oc1c(Cl)cc(Cl)cc1C=Nc1cc(C(F)(F)F)ccc1N1CCc2ccccc2C1		active: 1.9 µM
CC1CCN(c2nc3ccc(C(=O)NCCCN4CCCCC4)cc3s2)CC1		inconclusive: 30.1 µM [inhibitor, partial curve, poor fit]

SMILES	activity change, negative = inhibition	Potency
CCN(CC)C(=O)C(=O)N/N=C/c1ccc(Br)cc1		inconclusive: 16.9 µM [inhibitor, partial curve]
COc1cc(/C=C2\SC(=Nc3ccc(F)cc3)N(c3ccc(F)cc3)C2=O)ccc1OCC(=O)O		inconclusive: 37.9 µM [inhibitor, partial curve, poor fit]
O=C(O)CC(c1ccc(Br)cc1)N1Cc2ccccc2C1=O (centres undefined)	inactive: -2.65%	
Nc1cc(=O)[nH]c(SCC(=O)Nc2ccccc2Sc2ccccc2)n1	inactive: -9.51%	
Cc1ccc(CNC(=O)c2cn(C3CCCC3)c(=O)c3c2c2ccccc2n3C)o1		inconclusive: 15.1 µM [inhibitor, partial curve, poor fit]
Cc1[nH]c(C(=O)N/N=C/c2ccc(N(C)C)cc2)c(C)c1C(=O)N/N=C/c1ccc(N(C)C)cc1		inconclusive: 8.49 µM [inhibitor, partial curve, poor fit]
Cc1ccc(NC(=O)Cn2c(=O)n(Cc3ccco3)c(=O)c3sc4ccccc4c32)c(C)c1	inactive: 0.54%	
FC(F)(F)c1ccccc1NC(=S)N1CCc2ccccc2C1	inactive: 5.39%	
O=C(Nc1cccc(OC(=O)c2ccc(Br)o2)c1)c1ccccc1		inconclusive: 21.3 µM [inhibitor, partial curve, poor fit]
Cc1ccc(NC(=O)NCc2ccc3c(c2)OCO3)cc1C		inconclusive: 12 µM [inhibitor, partial curve]
Cc1cccc(COc2ccc(S(=O)(=O)N3CCOCC3)cc2[N+](=O)[O-])c1	inactive: 1.35%	
CCN(CC)S(=O)(=O)c1cc(NC(=O)C2Cc3ccccc3C(=O)O2)ccc1C (centres undefined)		active: 16.9 µM
Cc1ccc(C(=O)N2CCN(c3ncnc4c(C)csc34)CC2)cc1		inconclusive: 23.9 µM [inhibitor, partial curve, poor fit]
Cc1cccc(-n2nc3c(c2NC(=O)c2ccco2)CSC3)c1C	inactive: 1.38%	
COc1ccc(NC(=O)c2ccc(NCC3CCCO3)c([N+](=O)[O-])c2)cc1 (centres undefined)		inconclusive: 19 µM [inhibitor, partial curve]
Cc1ccc(S(=O)(=O)N/N=C2/CC(c3ccccc3)Oc3ccccc32)cc1 (centres undefined)		inconclusive: 21.3 µM [inhibitor, partial curve, poor fit]
CCCn1c(C(=O)OC)cc2c1ccn2-c1ccc(F)cc1		inconclusive: 21.3 µM [inhibitor, single point]
Cc1cccc(NC(=O)C(NS(=O)(=O)c2cccc3nsnc23)c2ccccc2)c1C (centres undefined)	inactive: 1.57%	
NC(=O)c1ccc(-n2c(CCC(=O)O)ccc2-c2cccs2)cc1		inconclusive: 30.1 µM [inhibitor, partial curve, poor fit]
CCN(CC)C(=O)c1sc2nc(-c3ccccc3)ccc2c1N		active: 5.36 µM
CN(Cc1cccc(Cl)c1Cl)CC(O)COc1ccccc1 (centres undefined)	inactive: -4.82%	
CCC(C)(C)NC(=O)C(c1cccc(OC)c1OC)N(C(=O)CCC(=O)Nc1cc(C)on1)c1ccc2c(c1)OCCO2 (centres undefined)	inactive: 4.76%	
